Test results reported in the supplement of paper PMC8728848.
The other results are listed elsewhere or left out.

Key:
Assay in all cases: glycan array binding signal (z-score within array); higher = stronger binding
Details in all cases: glycan notation: IUPAC condensed, linker removed
Fuc(a1-2)Gal = biological target: Fuc(a1-2)Gal
Summary of the method: (§1)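 From the Consortium for Functional Glycomics database, 3228 arrays were curated, keeping only those whose protein sequence was available. Binding is given as a within-array Z-score averaged across arrays sharing a protein sequence and across linkers. Negative Z-scores can be read as non-binding.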

Fuc(a1-2)Gal(b1-3)GalNAc = biological target: Fuc(a1-2)Gal(b1-3)GalNAc
Summary of the method: as §1

[1] = biological target: Fuc(a1-2)Gal(b1-3)GalNAc(a1-3)[Fuc(a1-2)]Gal(b1-4)Glc
Summary of the method: as §1

[2] = biological target: Fuc(a1-2)Gal(b1-3)GalNAc(a1-3)[Fuc(a1-2)]Gal(b1-4)GlcNAc
Summary of the method: as §1

[3] = biological target: Fuc(a1-2)Gal(b1-3)GalNAc(b1-3)Gal
Summary of the method: as §1

[4] = biological target: Fuc(a1-2)Gal(b1-3)GalNAc(b1-3)Gal(a1-4)Gal(b1-4)Glc
Summary of the method: as §1

[5] = biological target: Fuc(a1-2)Gal(b1-3)GalNAc(b1-4)[Neu5Ac(a2-3)]Gal(b1-4)Glc
Summary of the method: as §1

Fuc(a1-2)Gal(b1-3)GlcNAc = biological target: Fuc(a1-2)Gal(b1-3)GlcNAc
Summary of the method: as §1

[6] = biological target: Fuc(a1-2)Gal(b1-3)GlcNAc(b1-2)Man(a1-3)[Fuc(a1-2)Gal(b1-3)GlcNAc(b1-2)Man(a1-6)]Man(b1-4)GlcNAc(b1-4)GlcNAc
Summary of the method: as §1

[7] = biological target: Fuc(a1-2)Gal(b1-3)GlcNAc(b1-2)Man(a1-3)[Fuc(a1-2)Gal(b1-3)GlcNAc(b1-2)Man(a1-6)]Man(b1-4)GlcNAc(b1-4)[Fuc(a1-6)]GlcNAc
Summary of the method: as §1

[8] = biological target: Fuc(a1-2)Gal(b1-3)GlcNAc(b1-3)Gal(b1-4)Glc
Summary of the method: as §1

[9] = biological target: Fuc(a1-2)Gal(b1-3)GlcNAc(b1-3)GalNAc
Summary of the method: as §1

[10] = biological target: Fuc(a1-2)Gal(b1-3)GlcNAc(b1-3)[Fuc(a1-2)Gal(b1-3)GlcNAc(b1-6)]GalNAc
Summary of the method: as §1

[11] = biological target: Fuc(a1-2)Gal(b1-3)GlcNAc(b1-3)[Gal(b1-4)GlcNAc(b1-6)]Gal(b1-4)Glc
Summary of the method: as §1

[12] = biological target: Fuc(a1-2)Gal(b1-3)GlcNAc(b1-3)[Neu5Ac(a2-6)Gal(b1-4)GlcNAc(b1-6)]Gal(b1-4)Glc
Summary of the method: as §1

[13] = biological target: Fuc(a1-2)Gal(b1-3)GlcNAc6S
Summary of the method: as §1

[14] = biological target: Fuc(a1-2)Gal(b1-3)[Fuc(a1-4)]GlcNAc
Summary of the method: as §1

[15] = biological target: Fuc(a1-2)Gal(b1-3)[Fuc(a1-4)]GlcNAc(b1-2)Man(a1-3)[Fuc(a1-2)Gal(b1-3)[Fuc(a1-4)]GlcNAc(b1-2)Man(a1-3)]Man(b1-4)GlcNAc(b1-4)GlcNAc
Summary of the method: as §1

[16] = biological target: Fuc(a1-2)Gal(b1-3)[Fuc(a1-4)]GlcNAc(b1-2)Man(a1-3)[Fuc(a1-2)Gal(b1-3)[Fuc(a1-4)]GlcNAc(b1-2)Man(a1-6)]Man(b1-4)GlcNAc(b1-4)[Fuc(a1-6)]GlcNAc(b1-4)[Fuc(a1-6)]GlcNAc
Summary of the method: as §1

[17] = biological target: Fuc(a1-2)Gal(b1-3)[Fuc(a1-4)]GlcNAc(b1-3)[Fuc(a1-3)[Gal(b1-4)]GlcNAc(b1-6)]Gal(b1-4)Glc
Summary of the method: as §1

[18] = biological target: Fuc(a1-2)Gal(b1-3)[Fuc(a1-4)]GlcNAc(b1-3)[Gal(b1-4)GlcNAc(b1-6)]Gal(b1-4)Glc
Summary of the method: as §1

Fuc(a1-2)Gal(b1-4)Glc = biological target: Fuc(a1-2)Gal(b1-4)Glc
Summary of the method: as §1

Fuc(a1-2)Gal(b1-4)Glc6S = biological target: Fuc(a1-2)Gal(b1-4)Glc6S
Summary of the method: as §1

Fuc(a1-2)Gal(b1-4)GlcNAc = biological target: Fuc(a1-2)Gal(b1-4)GlcNAc
Summary of the method: as §1

[19] = biological target: Fuc(a1-2)Gal(b1-4)GlcNAc(b1-2)Man
Summary of the method: as §1

[20] = biological target: Fuc(a1-2)Gal(b1-4)GlcNAc(b1-2)Man(a1-3)[Fuc(a1-2)Gal(b1-4)GlcNAc(b1-2)Man(a1-6)]Man(b1-4)GlcNAc(b1-4)GlcNAc
Summary of the method: as §1

[21] = biological target: Fuc(a1-2)Gal(b1-4)GlcNAc(b1-2)Man(a1-3)[Fuc(a1-2)Gal(b1-4)GlcNAc(b1-2)Man(a1-6)]Man(b1-4)GlcNAc(b1-4)[Fuc(a1-6)]GlcNAc
Summary of the method: as §1

[22] = biological target: Fuc(a1-2)Gal(b1-4)GlcNAc(b1-2)[Fuc(a1-2)Gal(b1-4)GlcNAc(b1-4)]Man(a1-3)[Fuc(a1-2)Gal(b1-4)GlcNAc(b1-2)Man(a1-6)]Man(b1-4)GlcNAc(b1-4)GlcNAc
Summary of the method: as §1

[23] = biological target: Fuc(a1-2)Gal(b1-4)GlcNAc(b1-3)Gal(b1-4)GlcNAc
Summary of the method: as §1

[24] = biological target: Fuc(a1-2)Gal(b1-4)GlcNAc(b1-3)Gal(b1-4)GlcNAc(b1-2)Man(a1-3)[Fuc(a1-2)Gal(b1-4)GlcNAc(b1-3)Gal(b1-4)GlcNAc(b1-2)Man(a1-6)]Man(b1-4)GlcNAc(b1-4)GlcNAc
Summary of the method: as §1

B1: Cohesin-mDC-ASGPR (Macaca mulatta) (protein)
chain: LDITSHHHHHHDDLDAVRIKVDTVNAKPGDTVRIPVRFSGIPSKGIANCDFVYSYDPNVLEIIEIEPGDIIVDPNPDKSFDTAVYPDRKIIVFLFAEDSGTGAYAITKDGVFATIVAKVKEGAPNGLSVIKFVEVGGFANNDLVEQKTQFFDGGVNVGDTTEPATPTTPVTTPTTTDDLDAASSQNSKFQRDLVTLRTDFSNFTSNTVAEIQALTSQGSSVEEMIASLKAEVEVIKQEQQAVHSEMLLRVQRLMQDLNKLTCQVATLKNNASTERTCCPVNWVEHQDSCYWFSRSGMPWAEAEKHCQLENAHLVVINSREEQNFVQEHLSFAYTWMGLSDREGAWKWVDGTDYETGFQNWKPGQPDDWQGHGLGGGEDCAHFHPDGRWNDDVCQRPYYWVCEAGLTQASQESH
glycan array binding signal (z-score) (Fuc(a1-2)Gal): -0.408 | glycan array binding signal (z-score) (Fuc(a1-2)Gal(b1-3)GalNAc): -0.394 | glycan array binding signal (z-score) [1]: -0.406 | glycan array binding signal (z-score) [2]: -0.389 | glycan array binding signal (z-score) [3]: 0.568 | glycan array binding signal (z-score) [4]: -0.392 | glycan array binding signal (z-score) [5]: 0.874 | glycan array binding signal (z-score) (Fuc(a1-2)Gal(b1-3)GlcNAc): -0.39 | glycan array binding signal (z-score) [6]: -0.292 | glycan array binding signal (z-score) [7]: -0.227 | glycan array binding signal (z-score) [8]: -0.408 | glycan array binding signal (z-score) [9]: -0.366 | glycan array binding signal (z-score) [10]: -0.397 | glycan array binding signal (z-score) [11]: -0.417 | glycan array binding signal (z-score) [12]: -0.404 | glycan array binding signal (z-score) [13]: 0.873 | glycan array binding signal (z-score) [14]: -0.383 | glycan array binding signal (z-score) [15]: -0.306 | glycan array binding signal (z-score) [16]: -0.274 | glycan array binding signal (z-score) [17]: -0.416 | glycan array binding signal (z-score) [18]: -0.41 | glycan array binding signal (z-score) (Fuc(a1-2)Gal(b1-4)Glc): -0.387 | glycan array binding signal (z-score) (Fuc(a1-2)Gal(b1-4)Glc6S): -0.41 | glycan array binding signal (z-score) (Fuc(a1-2)Gal(b1-4)GlcNAc): -0.402 | glycan array binding signal (z-score) [19]: -0.388 | glycan array binding signal (z-score) [20]: -0.295 | glycan array binding signal (z-score) [21]: -0.121 | glycan array binding signal (z-score) [22]: -0.35 | glycan array binding signal (z-score) [23]: -0.415 | glycan array binding signal (z-score) [24]: -0.29
